The assay deals with T1, HER2 (human epidermal growth factor receptor 2) (human, UniProt P04626).
T1 construct: whole, on cells; also called HER2 receptor; HER2/neu
The assay is described as follows: flow cytometry (Alexa Fluor 488 channel) of cells kept 30 min on ice with 100 nM fluorescein-labelled anti-HER2(scFv)-Fc. In general terms: A flow cytometer gives signals particle by particle.

B1: Anti-HER2(scFv)-Fc (Fc fusion)
scFv: QVQLLQSGAELKKPGESLKISCKGSGYSFTSYWIAWVRQMPGKGLEYMGLIYPGDSDTKYSPSFQGQVTISVDKSVSTAYLQWSSLKPSDSAVYFCARHDVGYCTDRTCAKWPEWLDNWGQGTLVTVSSGGGGSGGGGSGGGGSQSVLTQPPSVSAAPGQKVTISCSGSSSNIGNNYVSWYQQLPGTAPKLLIYGHTNRPAGVPDRFSGSKSGTSASLAISGFRSEDEADYYCASWDYTLSGWVFGGGTKLTVLGGS[human IgG1 Fc omitted]
notes: also called anti-HER2(scFv)-Fc-Fluorescein; anti-HER2(scFv)-Fc-Alexafluor405
Take B1: the binding result is on record as “binds”.

The record behind these values is US20230227547A1 (IPROGEN BIOTECH, published 2023).
